{"source": "the supplement of paper PMC8728848", "binders": {"B1": {"name": "Gal 1 (Mus musculus), P16045 (protein)", "chain": "MACGLVASNLNLKPGECLKVRGEVASDAKSFVLNLGKDSNNLCLHFNPRFNAHGDANTIVCNTKEDGTWGTEHREPAFPFQPGSITEVCITFDQADLTIKLPDGHEFKFPNRLNMEAINYMAADGDFKIKCVAFE"}}, "test_in_all_cases": "glycan array binding signal (z-score within array); higher = stronger binding", "settings_in_all_cases": "glycan notation: IUPAC condensed, linker removed", "key": {"[1]": {"target": "Gal(b1-4)GlcNAc(b1-2)[Gal(b1-4)GlcNAc(b1-4)]Man(a1-3)[GlcNAc(b1-4)][Gal(b1-4)GlcNAc(b1-2)Man(a1-6)]Man(b1-4)GlcNAc(b1-4)GlcNAc", "in_short": "(§1)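 Glycan array data came from 3228 arrays in the Consortium for Functional Glycomics database, and only arrays with an available protein sequence were kept. Glycan names were put into IUPAC-condensed notation, and columns mapping to the same glycan were averaged. The binding signal is a within-array Z-score, averaged across arrays of one protein sequence run at different concentrations or buffers and across linkers. A negative Z-score can be read as non-binding.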"}, "[2]": {"target": "Gal(b1-4)GlcNAc(b1-2)[Gal(b1-4)GlcNAc(b1-4)]Man(a1-3)[GlcNAc(b1-4)][Gal(b1-4)GlcNAc(b1-2)[Gal(b1-4)GlcNAc(b1-6)]Man(a1-6)]Man(b1-4)GlcNAc(b1-4)GlcNAc", "in_short": "as §1"}, "[3]": {"target": "Gal(b1-4)GlcNAc(b1-2)[Gal(b1-4)GlcNAc(b1-6)]Man(a1-6)[Gal(b1-4)GlcNAc(b1-2)Man(a1-3)]Man(b1-4)GlcNAc(b1-4)GlcNAc", "in_short": "as §1"}, "[4]": {"target": "Gal(b1-4)GlcNAc(b1-2)[Gal(b1-4)GlcNAc(b1-6)]Man(a1-6)[Gal(b1-4)GlcNAc(b1-2)Man(a1-3)]Man(b1-4)GlcNAc(b1-4)[Fuc(a1-6)]GlcNAc", "in_short": "as §1"}, "[5]": {"target": "Gal(b1-4)GlcNAc(b1-2)[Gal(b1-4)GlcNAc(b1-6)]Man(a1-6)[GlcNAc(b1-4)][Gal(b1-4)GlcNAc(b1-2)Man(a1-3)]Man(b1-4)GlcNAc(b1-4)GlcNAc", "in_short": "as §1"}, "[6]": {"target": "Gal(b1-4)GlcNAc(b1-2)[Gal(b1-4)GlcNAc(b1-6)]Man(a1-6)[GlcNAc(b1-4)][Gal(b1-4)GlcNAc(b1-2)[Gal(b1-4)GlcNAc(b1-4)]Man(a1-3)]Man(b1-4)GlcNAc(b1-4)[Fuc(a1-6)]GlcNAc", "in_short": "as §1"}, "[7]": {"target": "Gal(b1-4)GlcNAc(b1-3)Gal(b1-3)GalNAc", "in_short": "as §1"}, "[8]": {"target": "Gal(b1-4)GlcNAc(b1-3)Gal(b1-3)GlcNAc", "in_short": "as §1"}, "[9]": {"target": "Gal(b1-4)GlcNAc(b1-3)Gal(b1-4)Glc", "in_short": "as §1"}, "[10]": {"target": "Gal(b1-4)GlcNAc(b1-3)Gal(b1-4)GlcNAc", "in_short": "as §1"}, "[11]": {"target": "Gal(b1-4)GlcNAc(b1-3)Gal(b1-4)GlcNAc(b1-2)Man(a1-3)[Gal(b1-4)GlcNAc(b1-3)Gal(b1-4)GlcNAc(b1-2)Man(a1-6)]Man(b1-4)GlcNAc(b1-4)GlcNAc", "in_short": "as §1"}, "[12]": {"target": "Gal(b1-4)GlcNAc(b1-3)Gal(b1-4)GlcNAc(b1-2)Man(a1-3)[Gal(b1-4)GlcNAc(b1-3)Gal(b1-4)GlcNAc(b1-2)Man(a1-6)]Man(b1-4)GlcNAc(b1-4)[Fuc(a1-6)]GlcNAc", "in_short": "as §1"}, "[13]": {"target": "Gal(b1-4)GlcNAc(b1-3)Gal(b1-4)GlcNAc(b1-2)[Gal(b1-4)GlcNAc(b1-3)Gal(b1-4)GlcNAc(b1-6)]Man(a1-6)[Gal(b1-4)GlcNAc(b1-3)Gal(b1-4)GlcNAc(b1-2)Man(a1-3)]Man(b1-4)GlcNAc(b1-4)GlcNAc", "in_short": "as §1"}, "[14]": {"target": "Gal(b1-4)GlcNAc(b1-3)Gal(b1-4)GlcNAc(b1-2)[Gal(b1-4)GlcNAc(b1-3)Gal(b1-4)GlcNAc(b1-6)]Man(a1-6)[Gal(b1-4)GlcNAc(b1-3)Gal(b1-4)GlcNAc(b1-2)Man(a1-3)]Man(b1-4)GlcNAc(b1-4)[Fuc(a1-6)]GlcNAc", "in_short": "as §1"}, "[15]": {"target": "Gal(b1-4)GlcNAc(b1-3)Gal(b1-4)GlcNAc(b1-3)Gal(b1-4)GlcNAc", "in_short": "as §1"}, "[16]": {"target": "Gal(b1-4)GlcNAc(b1-3)Gal(b1-4)GlcNAc(b1-3)Gal(b1-4)GlcNAc(b1-2)Man(a1-3)[Gal(b1-4)GlcNAc(b1-3)Gal(b1-4)GlcNAc(b1-3)Gal(b1-4)GlcNAc(b1-2)Man(a1-6)]Man(b1-4)GlcNAc(b1-4)GlcNAc", "in_short": "as §1"}, "[17]": {"target": "Gal(b1-4)GlcNAc(b1-3)Gal(b1-4)GlcNAc(b1-3)Gal(b1-4)GlcNAc(b1-2)Man(a1-3)[Gal(b1-4)GlcNAc(b1-3)Gal(b1-4)GlcNAc(b1-3)Gal(b1-4)GlcNAc(b1-2)Man(a1-6)]Man(b1-4)GlcNAc(b1-4)[Fuc(a1-6)]GlcNAc", "in_short": "as §1"}, "[18]": {"target": "Gal(b1-4)GlcNAc(b1-3)Gal(b1-4)GlcNAc(b1-3)Gal(b1-4)GlcNAc(b1-2)[Gal(b1-4)GlcNAc(b1-3)Gal(b1-4)GlcNAc(b1-3)Gal(b1-4)GlcNAc(b1-6)]Man(a1-6)[Gal(b1-4)GlcNAc(b1-3)Gal(b1-4)GlcNAc(b1-3)Gal(b1-4)GlcNAc(b1-2)Man(a1-3)]Man(b1-4)GlcNAc(b1-4)[Fuc(a1-6)]GlcNAc", "in_short": "as §1"}, "[19]": {"target": "Gal(b1-4)GlcNAc(b1-3)Gal(b1-4)GlcNAc(b1-3)Gal(b1-4)GlcNAc(b1-3)Gal(b1-4)GlcNAc(b1-2)Man(a1-3)[Gal(b1-4)GlcNAc(b1-3)Gal(b1-4)GlcNAc(b1-3)Gal(b1-4)GlcNAc(b1-3)Gal(b1-4)GlcNAc(b1-2)Man(a1-6)]Man(b1-4)GlcNAc(b1-4)GlcNAc", "in_short": "as §1"}, "[20]": {"target": "Gal(b1-4)GlcNAc(b1-3)Gal(b1-4)GlcNAc(b1-3)Gal(b1-4)GlcNAc(b1-3)Gal(b1-4)GlcNAc(b1-2)Man(a1-3)[Gal(b1-4)GlcNAc(b1-3)Gal(b1-4)GlcNAc(b1-3)Gal(b1-4)GlcNAc(b1-3)Gal(b1-4)GlcNAc(b1-2)Man(a1-6)]Man(b1-4)GlcNAc(b1-4)[Fuc(a1-6)]GlcNAc", "in_short": "as §1"}, "[21]": {"target": "Gal(b1-4)GlcNAc(b1-3)Gal(b1-4)GlcNAc(b1-3)Gal(b1-4)GlcNAc(b1-3)Gal(b1-4)GlcNAc(b1-2)[Gal(b1-4)GlcNAc(b1-3)Gal(b1-4)GlcNAc(b1-3)Gal(b1-4)GlcNAc(b1-3)Gal(b1-4)GlcNAc(b1-6)]Man(a1-6)[Gal(b1-4)GlcNAc(b1-3)Gal(b1-4)GlcNAc(b1-3)Gal(b1-4)GlcNAc(b1-3)Gal(b1-4)GlcNAc(b1-2)Man(a1-3)]Man(b1-4)GlcNAc(b1-4)[Fuc(a1-6)]GlcNAc", "in_short": "as §1"}, "[22]": {"target": "Gal(b1-4)GlcNAc(b1-3)Gal(b1-4)GlcNAc(b1-3)Gal(b1-4)GlcNAc(b1-3)Gal(b1-4)GlcNAc(b1-3)Gal(b1-4)GlcNAc(b1-2)Man(a1-3)[Gal(b1-4)GlcNAc(b1-3)Gal(b1-4)GlcNAc(b1-3)Gal(b1-4)GlcNAc(b1-3)Gal(b1-4)GlcNAc(b1-3)Gal(b1-4)GlcNAc(b1-2)Man(a1-6)]Man(b1-4)GlcNAc(b1-4)GlcNAc", "in_short": "as §1"}}, "note": "The list shows a part of the results."}
{"binder": "B1", "values": [{"measurement": "glycan array binding signal (z-score)", "setting": "[1]", "value": 0.891}, {"measurement": "glycan array binding signal (z-score)", "setting": "[2]", "value": 1.41}, {"measurement": "glycan array binding signal (z-score)", "setting": "[3]", "value": 1.54}, {"measurement": "glycan array binding signal (z-score)", "setting": "[4]", "value": 2.11}, {"measurement": "glycan array binding signal (z-score)", "setting": "[5]", "value": 0.059}, {"measurement": "glycan array binding signal (z-score)", "setting": "[6]", "value": 0.621}, {"measurement": "glycan array binding signal (z-score)", "setting": "[7]", "value": -0.307}, {"measurement": "glycan array binding signal (z-score)", "setting": "[8]", "value": -0.313}, {"measurement": "glycan array binding signal (z-score)", "setting": "[9]", "value": -0.109}, {"measurement": "glycan array binding signal (z-score)", "setting": "[10]", "value": 0.091}, {"measurement": "glycan array binding signal (z-score)", "setting": "[11]", "value": 2.09}, {"measurement": "glycan array binding signal (z-score)", "setting": "[12]", "value": 1.99}, {"measurement": "glycan array binding signal (z-score)", "setting": "[13]", "value": 1.22}, {"measurement": "glycan array binding signal (z-score)", "setting": "[14]", "value": 3.02}, {"measurement": "glycan array binding signal (z-score)", "setting": "[15]", "value": -0.173}, {"measurement": "glycan array binding signal (z-score)", "setting": "[16]", "value": 2.85}, {"measurement": "glycan array binding signal (z-score)", "setting": "[17]", "value": 2.53}, {"measurement": "glycan array binding signal (z-score)", "setting": "[18]", "value": 3.89}, {"measurement": "glycan array binding signal (z-score)", "setting": "[19]", "value": 2.54}, {"measurement": "glycan array binding signal (z-score)", "setting": "[20]", "value": 2.45}, {"measurement": "glycan array binding signal (z-score)", "setting": "[21]", "value": 3.42}, {"measurement": "glycan array binding signal (z-score)", "setting": "[22]", "value": 1.87}]}
